{
  "source": "PubChem BioAssay AID602179",
  "about": "(National Center for Advancing Translational Sciences (NCATS), 2012)",
  "note": "In all, about 390,000 compounds went through this assay and about 360 (0.092%) were called active. Inconclusive results, whose numbers are uncertain, are shown with a selection of clear calls. Calls come from the whole dose curve; as a rule, active = well fitted inhibition curve with a large enough effect; inconclusive = small, poorly fitted or top-dose-only effect; inactive = no such curve, though single readings can be large or run the other way. Potencies beside an inconclusive call are fits to weak or partial responses and may not hold up. Potency is the fitted concentration of half-maximal effect; tags give direction and shape of the fitted curve.",
  "data": [
    {"biological_target": "Isocitrate dehydrogenase [NADP] cytoplasmic (Homo sapiens) (UniProt O75874)", "assay": "qHTS for Inhibitors of mutant isocitrate dehydrogenase 1 (IDH1): qHTS; note: nearly all actives have a fitted effect of over 65% in size", "settings": "IDH1-R132H enzyme, NADPH consumption, diaphorase/resazurin fluorescence; series mostly up to 76.6 µM", "how_it_was_run": "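IDH1-R132H (0.5 ug/mL) preincubated 30 min with compound, then NADPH (0.016 mM) and alpha-KG (2 mM) added; 80 min at RT, pH 7.5. Remaining NADPH coupled via diaphorase/resazurin to fluorescence (540/590 nm); concentration-response curves normalized to no-enzyme control.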", "values": [
      {"smiles": "O=C(Cn1cc(SCc2ccc(Br)cc2)c2ccccc21)N1CCCCC1", "Potency": "inconclusive: 50.1 µM [inhibitor, single point]"},
      {"smiles": "CCOc1ccc(-n2ccc(=O)c(C(=O)Nc3ccc(S(=O)(=O)Nc4nccs4)cc3)n2)cc1", "Potency": "inconclusive: 58.5 µM [inhibitor, single point]"},
      {"smiles": "CC1(C)Cc2c(cnn2-c2ccccc2)-c2c1c1ccccc1n2CC(O)CBr", "note": "(stereo not given)", "Potency": "inconclusive: 29.3 µM [inhibitor, partial curve]"},
      {"smiles": "[S-]c1nnc(-c2ccc(Br)cc2)n1-c1ccccc1.[Zn+2]", "Potency": "inconclusive: 58.5 µM [inhibitor, single point]"},
      {"smiles": "COc1cccc(-c2nn3c(-c4cccc(C)c4)nnc3s2)c1", "Potency": "inactive"},
      {"smiles": "COC(=O)C1=C(C)N(Cc2ccccc2)C(=NCc2ccccc2)N[C@H]1c1cccc(C(F)(F)F)c1", "Potency": "inconclusive: 44.7 µM [inhibitor, single point]"},
      {"smiles": "Cc1ccc(C2=NN=C(NC(=O)CSc3nncn3C)SC2)cc1", "Potency": "active: 31.6 µM"},
      {"smiles": "COc1cc(OC)cc(C(=O)Nc2ccc(-c3nc4cc(C(C)C)ccc4o3)cc2)c1", "Potency": "inconclusive: 50.1 µM [inhibitor, single point]"},
      {"smiles": "Cc1cc(/C=N/n2c(COc3ccccc3)nc3ccccc3c2=O)c(O)c([N+](=O)[O-])c1", "Potency": "inconclusive: 18.5 µM [inhibitor, full curve]"},
      {"smiles": "O=C(CN1CC[n+]2c(-c3cccs3)csc21)c1ccc(-c2ccccc2)cc1", "Potency": "inactive"},
      {"smiles": "CCN1C(=O)S/C(=C/c2c(OCc3ccc(C(=O)O)cc3)ccc3ccccc23)C1=O", "Potency": "inconclusive: 50.1 µM [inhibitor, single point]"},
      {"smiles": "CC(C)C[C@H]1CN([C@@H](CC(C)C)CN2CCC[C@@H]2CN2C(=O)C(=O)NC[C@@H]2Cc2ccccc2)C(=O)C(=O)N1CCc1ccccc1", "Potency": "inconclusive: 50.1 µM [inhibitor, single point]"},
      {"smiles": "COc1ccc2oc(C(=O)OCC(=O)N3CCCC(C)C3)c(C)c2c1", "note": "(stereo not given)", "Potency": "inactive"},
      {"smiles": "Cc1cccc(C2C=C(c3ccc(F)cc3)Nc3nc4ccccc4n32)c1", "note": "(stereo not given)", "Potency": "inconclusive: 44.7 µM [inhibitor, single point]"},
      {"smiles": "Cc1ccc(-c2nn3c(-c4ccc(C)cc4)nnc3c3ccccc23)cc1", "Potency": "inconclusive: 50.1 µM [inhibitor, partial curve, poor fit]"},
      {"smiles": "CCc1ccc2c(c1)C(NC(C)=O)C(=O)N2CCN1CCOCC1", "note": "(stereo not given)", "Potency": "active: 46.5 µM"},
      {"smiles": "FC(F)Sc1ccc(N=C2NN=C(c3ccc4c(c3)OCCO4)CS2)cc1", "Potency": "inconclusive: 9.27 µM [inhibitor, partial curve, poor fit]"},
      {"smiles": "O=C(NCCCn1ccnc1)/C(=C/c1ccco1)NC(=O)c1ccco1", "Potency": "inconclusive: 23.3 µM [inhibitor, single point]"},
      {"smiles": "O=C(Nc1ccccn1)c1cc(-c2cccnc2)nc2ccc(Br)cc12", "Potency": "inactive"},
      {"smiles": "COc1ccc(CCNC(=O)c2cc(-c3cc(C)cc(C)c3O)n[nH]2)cc1OC", "Potency": "inconclusive: 58.5 µM [inhibitor, partial curve, poor fit]"},
      {"smiles": "O=C(c1ccc(Cl)cc1)c1c[nH]c(C(=O)C(Cl)(Cl)Cl)c1", "Potency": "inconclusive: 52.1 µM [inhibitor, partial curve]"},
      {"smiles": "Fc1ccc(CCNC(=S)Nc2ccc(F)cc2)cc1", "Potency": "inactive"},
      {"smiles": "CCc1ccccc1-n1c2c(cc(-c3nc(-c4ccc(Cl)cc4)cs3)c1=O)C(=O)CC(C)(C)C2", "Potency": "inconclusive: 1.41 µM [inhibitor, full curve, poor fit]"},
      {"smiles": "Cc1cc(C)cc(NC(=O)Nc2ccc3c(c2)CCC3)c1", "Potency": "inactive"},
      {"smiles": "O=C(N/N=C/c1ccccn1)c1cc(-c2ccc3ccccc3c2)n[nH]1", "Potency": "inactive"},
      {"smiles": "O=C(O)c1cccc(NS(=O)(=O)c2ccc(C3CCCCC3)cc2)c1", "Potency": "inconclusive: 44.7 µM [inhibitor, single point]"},
      {"smiles": "COc1cc(C2C(C#N)=C(N)Oc3n[nH]c(C)c32)ccc1OC(=O)c1ccccc1", "note": "(stereo not given)", "Potency": "inconclusive: 58.5 µM [inhibitor, single point]"},
      {"smiles": "CCS(=O)(=O)N1CCCC(C(=O)NC2CCCCC2C)C1", "note": "(stereo not given)", "Potency": "inactive"},
      {"smiles": "O=C(NC1CCN(Cc2ccccc2)CC1)c1ccc(S(=O)(=O)NCc2ccco2)cc1", "Potency": "inactive"},
      {"smiles": "CC(=O)N1CCN(c2ccccc2NC(=O)c2ccc(-c3cccc([N+](=O)[O-])c3)o2)CC1", "Potency": "inconclusive: 16.5 µM [inhibitor, single point]"},
      {"smiles": "C=CCn1cc(C(=O)NCc2ccco2)c(=O)c2cc(S(=O)(=O)N3CCCCCC3)ccc21", "Potency": "inconclusive: 14.7 µM [inhibitor, full curve]"},
      {"smiles": "CC(=O)c1c(O)c(C)c(O)c2c1OC1=CC(=O)/C(=C(/C)N)C(=O)C12C", "note": "(stereo not given)", "Potency": "inconclusive: 63.1 µM [inhibitor, single point]"},
      {"smiles": "COc1ccc(-c2coc3cc(OC(C)=O)ccc3c2=S)cc1", "Potency": "active: 46.5 µM"},
      {"smiles": "CCCCC(=O)NC(=S)Nc1cccc(NC(=O)c2ccccc2)c1", "Potency": "inactive"},
      {"smiles": "CC1(C)Cc2c(c(N3CCOCC3)nc3sc4c(NN)ncnc4c23)CS1", "Potency": "active: 23.3 µM"},
      {"smiles": "O=S(=O)(Nc1c(F)cccc1F)c1ccc2c(c1)OCCO2", "Potency": "inactive"},
      {"smiles": "CCN1CC=C2C(C#N)=C(N)C(C#N)(C#N)C(CCc3ccccc3)C2C1", "note": "(stereo not given)", "Potency": "inconclusive: 41.4 µM [inhibitor, partial curve]"},
      {"smiles": "Cc1ccc(C(C)C)c(OCCSc2nc(-c3cccs3)nc3cc(=O)[nH]n23)c1", "Potency": "inconclusive: 50.1 µM [inhibitor, single point]"},
      {"smiles": "c1ccc2c(c1)c1ccccc1n1c(-c3ccc4c(c3)OCO4)nnc21", "Potency": "inconclusive: 50.1 µM [inhibitor, single point]"},
      {"smiles": "O=C1/C(=C/c2ccncc2)SC(=S)N1Cc1ccccc1", "Potency": "inconclusive: 63.1 µM [inhibitor, single point]"},
      {"smiles": "O=C(NCC1COc2ccccc2O1)c1c[nH]c2ccc(S(=O)(=O)N3CCOCC3)cc2c1=O", "note": "(stereo not given)", "Potency": "inconclusive: 16.5 µM [inhibitor, single point]"},
      {"smiles": "CCC(=O)N1CCN(c2nc(-c3ccccc3)c3c(c2C#N)CCCC3)CC1", "Potency": "inconclusive: 36.9 µM [inhibitor, partial curve, poor fit]"},
      {"smiles": "COc1ccc(C2=C(Nc3ccc(C)cc3C)c3ccccc3C2=O)cc1", "Potency": "inconclusive: 50.1 µM [inhibitor, single point]"},
      {"smiles": "CC(=O)Nc1cccc(-n2cc3c(c2-c2ccccc2Cl)c(=O)n(C)c(=O)n3C)c1", "Potency": "inconclusive: 14.1 µM [inhibitor, full curve]"},
      {"smiles": "Cc1cc(NC(=O)CCC(=O)N(CCC(C)C)C(C(=O)NC2CCCC2)c2ccccc2C)no1", "note": "(stereo not given)", "Potency": "inconclusive: 46.5 µM [inhibitor, partial curve]"},
      {"smiles": "COc1cc2c(cc1OC)CN(CCC(C)c1ccc(Cl)cc1)CC2", "note": "(stereo not given)", "Potency": "inactive"},
      {"smiles": "CCOc1ccc(NC(=O)/C(C#N)=C\\c2ccc(-c3ccc(Cl)cc3)o2)cc1", "Potency": "inconclusive: 63.1 µM [inhibitor, single point]"},
      {"smiles": "COc1ccc(-c2sc(Nc3ccc(F)c(F)c3F)nc2CCC(=O)NN)cc1", "Potency": "active: 29.3 µM"},
      {"smiles": "O=C(NCCCn1ccnc1)c1ccccc1Br", "Potency": "inconclusive: 58.5 µM [inhibitor, partial curve, poor fit]"},
      {"smiles": "CC(=O)N1CC(=O)N=C1SCC(=O)Nc1nc(-c2ccccc2)c(-c2ccccc2)s1", "Potency": "inconclusive: 52.1 µM [inhibitor, single point]"},
      {"smiles": "O=C(c1ccoc1)N1CCCC(CO)(CCCc2ccccc2)C1", "note": "(stereo not given)", "Potency": "inactive"},
      {"smiles": "COc1ccc(NC2=C(c3ccccc3)C(=O)c3ccccc32)cc1Cl", "Potency": "inconclusive: 15.8 µM [inhibitor, full curve]"},
      {"smiles": "Cc1ccc2nc(-c3ccc(C)o3)c(Nc3ccc4c(c3)OCCO4)n2c1", "Potency": "inconclusive: 50.1 µM [inhibitor, partial curve, poor fit]"},
      {"smiles": "O=[N+]([O-])/C=C/c1cn(Cc2ccc(F)cc2)c2ccccc12", "Potency": "inconclusive: 58.5 µM [inhibitor, single point]"},
      {"smiles": "CC(C)c1ccccc1-n1c(SCc2cc(=O)oc3ccc4ccccc4c23)nnc1-c1cccnc1", "Potency": "inconclusive: 29.3 µM [inhibitor, full curve]"},
      {"smiles": "CC(=O)N1N=C(c2c(-c3ccccc3)c3cc(C)ccc3[nH]c2=O)CC1c1ccco1", "note": "(stereo not given)", "Potency": "inconclusive: 52.1 µM [inhibitor, single point]"},
      {"smiles": "CCc1cc(-c2[nH]ncc2-c2ccc([N+](=O)[O-])cc2)c(O)cc1OC", "Potency": "inconclusive: 58.5 µM [inhibitor, single point]"},
      {"smiles": "COc1ccccc1N1CCN(C(=O)c2ccccc2N(C)S(=O)(=O)c2ccc(C)cc2)CC1", "Potency": "inactive"},
      {"smiles": "c1ccc(-c2nc(NCCCn3ccnc3)c3oc4ccccc4c3n2)cc1", "Potency": "inconclusive: 58.5 µM [inhibitor, partial curve, poor fit]"},
      {"smiles": "CCOC(=O)c1ccc2[nH]c(C)c(C)c2c1", "Potency": "inactive"},
      {"smiles": "CCOc1ccc(CCN2C(=O)C(=O)N([C@@H](CC(C)C)CN3CCC[C@@H]3CN3C(=O)C(=O)NC[C@@H]3Cc3ccccc3)C[C@@H]2Cc2ccc(O)cc2)cc1", "Potency": "inconclusive: 63.1 µM [inhibitor, single point]"},
      {"smiles": "CCc1ccc(OCCn2c(C3CC(=O)N(Cc4ccc(F)cc4)C3)nc3ccccc32)cc1", "note": "(stereo not given)", "Potency": "inconclusive: 12.6 µM [inhibitor, full curve]"},
      {"smiles": "Cc1ccc(S(=O)(=O)N=Nc2c(O)[nH]c3ccccc23)cc1C", "Potency": "active: 46.5 µM"},
      {"smiles": "Cc1ccc(-c2ccc(/C=C3\\C(=O)ON=C3c3ccccc3)o2)c([N+](=O)[O-])c1", "Potency": "active: 52.1 µM"},
      {"smiles": "Cc1ccc(N(C(=O)c2snc(C(N)=O)c2N)C(C(=O)NC2CCCC2)c2ccc(C)o2)cc1", "note": "(stereo not given)", "Potency": "inconclusive: 46.5 µM [inhibitor, partial curve]"}
    ]}
  ]
}
